# Results taken from PubChem BioAssay AID686979 (National Center for Advancing Translational Sciences (NCATS), 2013).
# Several values for one entry are separate records, joined by “and”; a condition that tells them apart may be missing. Identical values can stand only once. Hit rate of the full screen: of about 420,000 compounds, about 50,000 (12%) were called active. The inconclusive results got no clear call from the source; some entries with a clear call stand among them for comparison. Calls follow the shape of the dose curve; as a rule, active = well fitted inhibition curve with a large enough effect; inconclusive = small, poorly fitted or top-dose-only effect; inactive = flat fitted curve, though single readings scatter. A potency beside an inconclusive call is a rough fit, not a confirmed value.
# Assay: qHTS for Inhibitors of human tyrosyl-DNA phosphodiesterase 1 (TDP1): qHTS in cells in presence of CPT; also: nearly all actives have a fitted effect of over 55% in size
# Details: chicken DT40 Tdp1-/-;hTDP1 cells + 20 nM CPT, ATP luminescence, 48 h; activity change, negative = growth inhibition: at 46.2 µM (top of the series) unless noted
# In short: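 Chicken DT40 Tdp1-/- cells stably complemented with human TDP1 were seeded at 400 cells/well in medium containing 20 nM camptothecin, exposed to pin-transferred compounds, and grown at 37 °C for at least 48 hr. Viability was read as ATP luminescence.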
# % is scaled to controls: 0 for no effect and ±100 for the full control effect; potency is read from the fitted curve at half-maximal effect; tags tell the direction and shape of the fitted curve.
SMILES,Potency,"activity change, negative = growth inhibition"
O=c1cc(CN2CCN(Cc3ccccc3)CC2)c2ccc(O)cc2o1,inactive,–
O=C(Nc1nc(-c2ccccn2)cs1)c1cc(S(=O)(=O)N2CCOCC2)ccc1F,active: 2.59 µM,–
FC(F)Oc1ccc(-c2csc(Cc3nnc4n3CCCCC4)n2)cc1,"inconclusive: 25.9 µM [inhibitor, single point]",–
O=C(COc1ccc2c3c(c(=O)oc2c1)CCCC3)NCC(O)c1ccccc1 (stereo not drawn),active: 20.6 µM,–
O=C(O)c1cc(Cl)c2ccccc2c1O,"inconclusive: 23.1 µM [inhibitor, single point]",–
O=C(Nc1ccc(C(=O)O)cc1)/C(=C\c1ccccc1)NC(=O)c1ccc(Br)cc1,inactive,–
CCc1cccc(CC)c1NC(=O)COc1ccccc1C(=O)c1cc(C#N)c(=O)n(C2CCCCC2)c1,active: 18.4 µM,–
Cc1ccccc1N=C1SC(CC(=O)Nc2ccc3ccccc3c2)C(=O)N1Cc1ccccn1 (stereo not drawn),active: 18.4 µM,–
C[C@@H]1CN([C@@H](C)CO)C(=O)c2cc(NC(=O)Nc3cccc4ccccc34)ccc2O[C@@H](C)CCCCO[C@H]1CN(C)C(=O)c1ccccc1,"inconclusive: 29.1 µM [inhibitor, single point]",–
Cc1cc(NC(=O)C2CCCC2)nc2c1c(=O)oc1ccccc12,"inconclusive: 20.6 µM [inhibitor, single point]",–
CCOC(=O)[C@]12CCCC=C1N(Cc1ccccc1)C(=O)[C@H](CC(=O)NCc1ccccc1)C2,"inconclusive: 20.6 µM [inhibitor, single point]",–
O=S1(=O)CCOC[C@H](c2ccccc2)N1Cc1ccc(Cl)c(Cl)c1,"inconclusive: 35.5 µM [inhibitor, single point]",–
COC(=O)c1sc(S(=O)(=O)NC(Cc2ccccc2)C(=O)O)c(C(=O)OC)c1C (stereo not drawn),inactive,–
COc1ccc(NC(=S)N(CCc2c(C)[nH]c3ccccc23)Cc2cccnc2)cc1,–,inconclusive: -26.7% [inhibitor]
COc1cccc(NC(=O)C2C3C=CC(O3)C2C(=O)NCc2cccnc2)c1 (stereo not drawn),"inconclusive: 25.9 µM [inhibitor, single point]",–
CC(=O)Nc1ccc(OS(=O)(=O)c2cc(Cl)ccc2C)cc1,active: 20.6 µM,–
Nc1ccccc1SC1CC(=O)N(c2ccc(Cl)c(Cl)c2)C1=O (stereo not drawn),active: 25.9 µM,–
Cc1ccc(C(=O)Nc2nc(=O)n(C(=O)C3CC3)s2)cc1,active: 20.6 µM,–
O=C(CSc1c2c(nc3cc(Cl)ccc13)CCCC2)NCc1ccco1,active: 23.1 µM,–
Cc1ccc2nc(SCc3ccc([N+](=O)[O-])cc3)[nH]c2c1,"inconclusive: 23.1 µM [inhibitor, single point]",–
CCc1nc2ccc(C(=O)N3CCN(c4ccc(Cl)cc4)CC3)cc2nc1CC,"inconclusive: 29.1 µM [inhibitor, single point]",–
Cc1ccc(Cl)cc1N1CCN(C(=O)c2ccc(C)c(-n3c(C)nc4cccnc43)c2)CC1,active: 7.31 µM,–
Cc1cc(C)c2c(c1)/C(=N/Nc1ccc(S(N)(=O)=O)cc1[N+](=O)[O-])CCC2,"inconclusive: 20.6 µM [inhibitor, single point]",–
CCOC(=O)C1=C(O)/C(=C/c2ccc(CNC(=O)C(=O)Nc3ccc(C)cc3)o2)N=C1C,"inconclusive: 11.6 µM [inhibitor, partial curve]",–
CCCCc1ccc(C(=O)N/C(=C\c2ccc(C)cc2)C(=O)NC2CCCCC2)cc1,active: 9.2 µM,–

SMILES,Potency,"activity change, negative = growth inhibition"
Cc1ccccc1C(=O)NCCOc1ccccc1Cl,inactive,–
CN1OC[C@@H]2CN[C@H](c3ccc(-c4cccc(F)c4)cc3)C[C@@H]21,"inconclusive: 29.1 µM [inhibitor, single point]",–
CCOCCC(=O)Nc1ccc2c(c1)c(=O)n(C)n2-c1ccc2ccccc2c1,active: 1.46 µM,–
CCN(CC)C(=O)CSc1nc2ccccc2c(=O)n1CCC(=O)N1CCN(c2ccccc2)CC1,active: 16.4 µM,–
COc1cc(Nc2ccccn2)cc(C(=O)Nc2cccc(C(F)(F)F)c2)c1,active: 16.4 µM,–
CN(Cc1ccccc1)C(NC(=O)c1ccccc1)C(Cl)(Cl)Cl (stereo not drawn),"inconclusive: 35.5 µM [inhibitor, single point]",–
O=C(CC1N=C2c3ccccc3N=C(SCc3ccccc3F)N2C1=O)NCc1cccs1 (stereo not drawn),"inconclusive: 23.1 µM [inhibitor, single point]",–
CCOc1ccc2nc(SCC(=O)N3CCCc4ccccc43)sc2c1,"inconclusive: 18.4 µM [inhibitor, single point]",–
O=C(NCCC1=CCCCC1)C1CCN(S(=O)(=O)c2cccc3nsnc23)CC1,"inconclusive: 18.4 µM [inhibitor, single point]",–
Cc1ccc(-c2csc(N/N=C/c3ccco3)n2)cc1,"inconclusive: 23.1 µM [inhibitor, partial curve]",–
Oc1ccccc1C=NC1=NN(c2cccc(C(F)(F)F)c2)CC1,–,inconclusive: -31.7% [inhibitor]
O=C1c2oc3ccccc3c(=O)c2C(c2cccc(O)c2)N1c1ccccn1 (stereo not drawn),active: 20.6 µM,–
O=C(N/N=C/c1ccc(Cl)c([N+](=O)[O-])c1)c1ccc2c(c1)OCCO2,inactive,–
CC1CCCCC12NC(=O)N(CC(=O)Nc1ccc(Cl)c(S(=O)(=O)N3CCOCC3)c1)C2=O (stereo not drawn),"inconclusive: 23.1 µM [inhibitor, partial curve, poor fit]",–
COc1ccc(NC(=O)CN2C(=O)NC3(CCCC3)C2=O)c(OC)c1,inactive,–
Cc1sc2ncnc(N3CCC(C(=O)N(CC(C)C)c4nc5ccccc5s4)CC3)c2c1C,active: 20.6 µM,–
C/C(=N\Nc1cc(N2CCOCC2)ncn1)c1cccc([N+](=O)[O-])c1,"inconclusive: 23.1 µM [inhibitor, single point]",–
CCCN1CCN(C(=O)c2ccc(CS(=O)c3ccc(Br)cc3)o2)CC1 (stereo not drawn),"inconclusive: 23.1 µM [inhibitor, partial curve, poor fit]",–
COc1ccc(-c2cc3ccccc3n2CC(O)CN2CCC(C)CC2)cc1 (stereo not drawn),"inconclusive: 29.1 µM [inhibitor, single point]",–
COc1cccc(C(=O)C(=O)c2cccc(OC)c2OC)c1OC,"inconclusive: 20.6 µM [inhibitor, single point]",–
COc1ccc2nccc(C(N)=O)c2c1,inactive,–
COc1cccc(Nc2nc(-c3ccccc3)c3cc(C)ccc3n2)c1,active: 7.31 µM,–
COc1ccccc1C(CNC(=O)c1oc2ccccc2c1C)N1CCCC1 (stereo not drawn),"inconclusive: 29.1 µM [inhibitor, single point]",–
C#CCOCCOCCOCCNc1nc(N2CCN(C(=O)[C@H]([C@@H](C)CC)n3cc([C@@H](N)CC(C)C)nn3)CC2)nc(N2CCN(C(=O)[C@H](Cc3cc4ccccc4[nH]3)n3cc([C@@H](N)Cc4ccc(O)cc4)nn3)CC2)n1,"inconclusive: 29.1 µM [inhibitor, single point]",–
CN(CC(=O)NCCc1ccccc1)CC(=O)Nc1cccc(F)c1,inactive,–

SMILES,Potency,"activity change, negative = growth inhibition"
Cc1ccc(NC(=O)c2ncn(CCCN3CCN(Cc4cccc5ccccc45)CC3)n2)cc1C,active: 20.6 µM,–
COc1cccc(-c2cc3nc(C)cc(N4CCN(C(=O)c5ccoc5)CC4)n3n2)c1,"inconclusive: 25.9 µM [inhibitor, single point]",–
COc1cc(C2CC(=O)Nc3c2c(=O)nc2c(C)cccn32)cc(OC)c1OC (stereo not drawn),inactive,–
CC1CCCCN1S(=O)(=O)c1ccc2c(c1)oc(=O)n2CC(=O)Nc1ccc(Cl)cc1 (stereo not drawn),"inconclusive: 18.4 µM [inhibitor, single point]",–
COc1cccc(N2CCN(C(=O)c3cccc(S(=O)(=O)N4CCCC4)c3)CC2)c1,inactive,–
Cc1ccc(NC(=O)CSc2nncs2)cc1Cl,inactive,–
O=C1NC(Cc2c[nH]c3ccccc23)C(=O)N1Cc1cccc2ccccc12 (stereo not drawn),inactive,–
CNC(=O)c1c(NC(=O)c2cccc(C)c2)sc2c1CCC2,"inconclusive: 29.1 µM [inhibitor, single point]",–
O=C(NCCCc1ccccc1)c1ccc(CS(=O)Cc2ccc(Cl)cc2)o1 (stereo not drawn),inactive,–
CC(=O)Nc1ccc(NC(=O)Cc2ccc(S(=O)(=O)N3CCCCC3)cc2)cc1,inactive,–
COc1ccc(S(=O)(=O)N2Cc3ccccc3CC2C(=O)Nc2ccc(O)cc2)cc1OC (stereo not drawn),inactive,–
O=C(CC1NC(=O)NC1=O)Nc1cccc2ccccc12 (stereo not drawn),inactive,–
Cc1cc(NCCc2ccccc2F)n2ncnc2n1,inactive,–
N#Cc1cccc(-n2c(-c3ccccc3)nnc2-c2ccccc2)c1C#N,"inconclusive: 29.1 µM [inhibitor, single point]",–
COc1ccc(Cc2nc3c4c(ncn3n2)Oc2ccc3ccccc3c2C4c2ccc(OC)c(OC)c2)cc1 (stereo not drawn),inactive,–
CCOc1cc(CNCc2ccccc2)ccc1OCc1ccc(Cl)cc1,active: 23.1 µM,–
Cc1ccc(NC(=O)C(Cc2ccccc2)NS(=O)(=O)c2cccc3nsnc23)c(C)c1 (stereo not drawn),inactive,–
Cc1ccc(C)c(C(=O)Nc2cc(C)nn2-c2nc(C)cc(C)n2)c1,active: 3.26 µM,–
Cc1c(NS(=O)(=O)c2ccc(Cl)c(C(=O)OC(C)C(=O)NCc3ccco3)c2)c(=O)n(-c2ccccc2)n1C (stereo not drawn),inactive,–
Oc1ccc(C=NNc2nc3ccccc3s2)c(O)c1,active: 3.66 µM,–
CCN(CCCNC(=O)c1cc2cc3ccc(OC)cc3nc2s1)c1ccccc1,active: 16.4 µM,–
CCN1CCC(N(Cc2ccc3c(c2)OCO3)C(=O)Nc2ccc(Br)c(C)c2)CC1,"inconclusive: 25.9 µM [inhibitor, single point]",–
O=C1CCN(Cc2ccccc2)S(=O)(=O)c2ccc(C(F)(F)F)cc21,"inconclusive: 35.5 µM [inhibitor, single point] and inconclusive: 29.1 µM [inhibitor, single point]",–
